In patent US20060062780A1:

Biological target: MOG-reactive B-cell receptor on B cells of anti-MOG transgenic mice
Assay: cell-based or functional assay

B1: eMOG-Fc fusion protein (de-immunized MOG-Fc) (Fc fusion)
chain: GQFRVIGPRHPIRALVGDEVELPCRISPGKNATGMEVGWYRPPFSRVVHLYRNGKDQDGDQAPEYRGRTELLKDAIGEGKVTLRIRNVRFSDEGGFTCFFRDHAYQEEAAMELKVEDPFYWVSPGSG[human IgG1 Fc not shown]
B-cell numbers (CD19) in control cultures, ex vivo, splenocytes of TH mice (% of total live lymphocytes): 12
B-cell numbers (CD19) in cultures treated with 10 µg/ml eMOG-Fc for 16 h, ex vivo, splenocytes of TH mice (% of total live lymphocytes): 8
